Structures are written as SMILES. About 550 (1.1%) of roughly 48,000 compounds were called active. Another 4% or so got no clear call; they are omitted. No stated cut-off is given here; in the data, active means potency below about 15 µM; inconclusive means mostly about 16 µM to 33 µM; inactive means weaker than that. Some of the results follow.
Potency means the concentration at half of the fitted maximal effect.

UniProt P04062, sequence (P04062 whole entry, looked up): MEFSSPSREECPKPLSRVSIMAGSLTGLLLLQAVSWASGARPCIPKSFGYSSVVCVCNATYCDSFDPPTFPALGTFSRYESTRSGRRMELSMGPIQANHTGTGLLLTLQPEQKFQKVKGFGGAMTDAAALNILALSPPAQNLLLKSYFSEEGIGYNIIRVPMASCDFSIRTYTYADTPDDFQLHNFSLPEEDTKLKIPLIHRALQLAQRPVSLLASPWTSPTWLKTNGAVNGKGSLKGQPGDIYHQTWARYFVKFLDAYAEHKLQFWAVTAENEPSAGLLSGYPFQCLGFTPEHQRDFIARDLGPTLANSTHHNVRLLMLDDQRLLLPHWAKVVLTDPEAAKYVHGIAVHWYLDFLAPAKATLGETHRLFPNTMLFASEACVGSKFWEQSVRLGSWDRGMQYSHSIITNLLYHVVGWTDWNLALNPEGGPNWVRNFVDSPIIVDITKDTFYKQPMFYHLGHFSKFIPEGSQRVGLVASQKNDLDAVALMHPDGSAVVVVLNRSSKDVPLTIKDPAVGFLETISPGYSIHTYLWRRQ

The target in this experiment is Lysosomal acid glucosylceramidase (Homo sapiens) (UniProt P04062). As to the kind of experiment: Glucocerebrosidase.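 Further: the screen sought inhibitors.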 The conditions noted are these: purified enzyme, resorufin glucoside fluorescence (screen aimed at inhibitors), 20 min. The essentials:
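Compounds titrated against 0.2 nM normal enzyme, 30 uM resorufin beta-D-glucopyranoside substrate, citrate/phosphate buffer with taurocholate and tween-20, pH 5.9. Reaction ran 20 min at room temperature; fluorescence (Ex 548/Em 600) gave AC50.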
As to `Nc1nc2c3ccccc3nc(Cc3ccccc3)n2n1`, the Potency is inactive: > 76.9 µM.
For the molecule `Cc1ccc(NC2=NC(c3ccc(C)cc3)n3c(nc(C)cc3=O)N2)cc1` (configuration not stated), the Potency was inactive: > 76.9 µM.
Take `COCCNC(=O)Cn1c(=O)n(CCC(=O)NCCc2ccccc2)c(=O)c2ccccc21`: the Potency is inactive: > 76.9 µM.
Regarding `COc1ccc(C(=O)n2nc(-c3ccc(C)cc3)nc2N)cc1OC`, the Potency was inactive: > 76.9 µM.
Turning to `CCS(=O)(=O)N1CCN(C(=O)CC(C)C)CC1`, the Potency is inactive: > 76.9 µM.
For `O=C(NCCN1CCCCCC1)C1CC(=O)N(CCc2ccccc2)C1` (configuration not stated), the Potency was inactive: > 76.9 µM.
As for `CCCCSc1nnc([C@H](C)NC(=O)OC(C)(C)C)o1`, the figure is inactive: > 76.9 µM; as for `CCn1c(SCC(=O)N(C(C)C)C(C)C)nnc1-c1cc2ccccc2cc1O`, inactive: > 76.9 µM; as for `Cn1c(=O)c2c(nc(SCC(=O)O)n2Cc2cccc(C(F)(F)F)c2)n(C)c1=O`, inactive: > 76.9 µM.
As for `CCC(C)N(CC(=O)NCc1ccc(OC)cc1)C(=O)c1csnn1` (configuration not stated), the figure is inactive: > 76.9 µM.
For `CCOC(=O)c1sc(NC(=O)CSc2ccccn2)c(C#N)c1C`, the Potency was inactive: > 76.9 µM.
On to `O=C(CS(=O)(=O)Cc1ccccc1)N1CCN(C(=O)c2ccco2)CC1`, for which the Potency was inactive: > 76.9 µM.
For the molecule `COc1ccccc1N1CCN(Cc2nc(N)nc(Nc3ccc(C)c(Cl)c3)n2)CC1`, the Potency is active: 5.31 µM.
As for `CC(=O)c1cc2c(cc1NC(=O)c1cc3nc(C(C)C)cc(C(F)(F)F)n3n1)OCO2`, the figure is inactive: > 76.9 µM; as for `CC(=O)N1CCN(CC(=O)Nc2c(Cl)cc(Cl)cc2Cl)CC1`, inactive: > 76.9 µM; as for `CCOC(=O)N1CCN(Cc2cn3ccccc3n2)CC1`, inactive: > 76.9 µM.
As for `O=C(NCCCN1CCCC1=O)NC12CC3CC(CC(C3)C1)C2`, the figure is inactive: > 76.9 µM; as for `O=C(CSc1nnnn1-c1ccc2c(c1)OCCO2)Nc1nc2c(s1)CCCC2`, inactive: > 76.9 µM.
As for `CCOc1ccccc1OCc1nn2c(-c3ccc(C)cc3)nnc2s1`, the figure is inactive: > 76.9 µM; as for `COc1ccc(N2CCN(C(CNC(=O)c3ccco3)c3cccnc3)CC2)cc1` (configuration not stated), inactive: > 76.9 µM; as for `CC(C)(C)Sc1ccc(N)nc1`, inactive: > 76.9 µM.
Regarding `NC(=O)C1CCN(CCC(=O)Nc2cccc(Cl)c2)CC1`, the Potency was inactive: > 76.9 µM.
As for `O=C1CCCCCN1C(=O)c1cccc(C(=O)N2CCCCCC2=O)c1`, the figure is inactive: > 76.9 µM; as for `CCCCN(C(=O)CN1C(=O)C2CC=CCC2C1=O)c1c(N)n(CCC)c(=O)[nH]c1=O` (configuration not stated), inactive: > 76.9 µM; as for `COc1ccc(S(=O)(=O)NC(C(C)C)C(C)C)cc1OC`, inactive: > 76.9 µM.
As for `CCC1(C)Cc2c(sc3c2c2ncnn2c2nnc(SCC(=O)NCc4ccco4)n32)CO1` (configuration not stated), the figure is inactive: > 76.9 µM; as for `COc1ccc(-c2noc(CN(C)S(=O)(=O)c3ccc(C)cc3)n2)cc1`, inactive: > 76.9 µM.
As for `COc1ccccc1-c1n[nH]c(=S)o1`, the figure is inactive: > 76.9 µM; as for `CCCSc1nc2c(c(=O)n1-c1ccc(OCC)cc1)SCC2`, inactive: > 76.9 µM; as for `Cc1ccc(-c2nnc3c4ccccc4c(C)nn23)cc1S(=O)(=O)N1CCN(CCO)CC1`, “inactive”.
As to `COCCNCC#CCOc1ccc(OC)cc1`, the Potency was inactive: > 76.9 µM.
As for `Cc1cccc2cc(CN(CCc3ccccc3)C(=O)N3CCOCC3)c3nnnn3c12`, the figure is inactive: > 76.9 µM; as for `CCN(CC)S(=O)(=O)c1ccc(NC2c3ncccc3C(=O)N2Cc2ccccc2)cc1` (configuration not stated), inactive: > 76.9 µM; as for `COc1ccc(NC(=O)c2oc3ccccc3c2NC(=O)c2ccc(OC)c(OC)c2)c(OC)c1`, inactive: > 76.9 µM.
In the case of `COc1ccc(S(=O)(=O)N(C)CC(=O)N2CCCCC2)cc1Cl`, the Potency was inactive: > 76.9 µM.
Turning to `O=C(c1ccc(C#CC2(O)CCCCC2)cc1)N1CCOCC1`, the Potency is inactive: > 76.9 µM.
For `COc1cccc(OC)c1OCCCSc1nc(C)cc(=O)[nH]1`, the Potency was inactive: > 76.9 µM.
As for `COc1cccc(OCC(O)CN2CC(C)CC(C)C2)c1` (configuration not stated), the figure is inactive: > 76.9 µM; as for `Cc1c(N(C)C(=O)C23CC4CC(CC(C4)C2)C3)c(=O)n(-c2ccccc2)n1C`, inactive: > 76.9 µM.
As for `O=C(CSc1nnc(-c2cccs2)o1)NCC1CN(Cc2ccccc2)CCO1` (configuration not stated), the figure is inactive: > 76.9 µM; as for `COc1cc(-c2nc(-c3ccc(NC(=O)c4ccc5c(c4)OCO5)cc3)no2)cc(OC)c1OC`, inactive: > 76.9 µM; as for `O=C(COc1ccc(S(=O)(=O)N2CCCC2)cc1Cl)NCc1ccc2c(c1)OCO2`, inactive: > 76.9 µM.
On to `COCCNC(=O)CN(C(=O)Cn1nnc2ccccc21)c1ccc(F)c(Cl)c1`, for which the Potency is inactive: > 76.9 µM.
As for `Clc1ccc(-c2nnc(SCc3cn4ccsc4n3)n2CC2CCCO2)cc1` (configuration not stated), the Potency was inactive: > 76.9 µM.
As to `COc1ccc(CNC(=O)c2cnc(C)cn2)c(OC)c1`, the Potency was inactive: > 76.9 µM.
As for `CCc1n[nH]c2c1/C(=N/O)CCC2`, the figure is inactive: > 76.9 µM; as for `Cc1ccc(S(=O)(=O)NCCNC(=O)C2CCCNC2=O)cc1` (configuration not stated), inactive: > 76.9 µM.
As for `CCC(Sc1nc(C)cc(=O)[nH]1)C(=O)Nc1nc2c(s1)CCCC2` (configuration not stated), the figure is inactive: > 76.9 µM; as for `O=C(NCc1ccccc1F)C1CCN(C(=O)NCc2ccccc2)CC1`, inactive: > 76.9 µM.
As for `CCOc1ccc(NC(=O)C2CC(=O)N3CCCN=C3S2)cc1` (configuration not stated), the figure is inactive: > 76.9 µM.
For `O=C(CSc1ccccc1C(=O)NCCCN1CCCC1=O)NCc1ccco1`, the Potency was inactive: > 76.9 µM.
As for `CC(=O)Nc1ccc(OCC(O)CN2CCN(Cc3ccccc3)CC2)cc1` (configuration not stated), the figure is inactive: > 76.9 µM.
As for `CC1CN(C(=O)C(C)Sc2nc3ccccc3s2)CC(C)O1` (configuration not stated), the figure is inactive: > 76.9 µM; as for `CN(C)S(=O)(=O)c1cccc(C(=O)OCC(=O)Nc2ccccc2OC(F)F)c1`, inactive: > 76.9 µM; as for `O=C(O)Cn1cc2c(n1)CCCC2`, inactive: > 76.9 µM.
As for `COc1cccc(C(=O)N(CN2CCCC2=O)c2ccccc2OC)c1`, the figure is inactive: > 76.9 µM; as for `COc1ccc(CCn2nnnc2C(CC(C)C)N2CCC(C(N)=O)CC2)cc1OC` (configuration not stated), inactive: > 76.9 µM.

For the origin of these results see PubChem BioAssay AID360 (National Center for Advancing Translational Sciences (NCATS), 2006).
